# Measured values taken from the supplement of paper PMC11417369.
# ± gives the standard deviation of the averaged measurements. The list shows a part of the results.
# System: PfAP2-LT AP2 domain (GST-tagged)
# Assay: gcPBM binding intensity (ln(normalized median fluorescence intensity)); higher = stronger DNA binding
# Outline: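 Using an Agilent 4 × 180k array, primer-extended double-stranded 36-bp intergenic genomic probes and negative controls were exposed for 1 h to GST-fused P. falciparum DNA-binding domains expressed in E. coli. Binding was carried out in 1× PBS with 1% milk, 0.2 mg/ml BSA, 0.5% salmon testes DNA and 0.03% Triton X-100, and protein was detected with Alexa488 anti-GST antibody and a 488 nm scan. Binding intensity is the highest Masliner-normalised natural-log median intensity across replicate spots of either probe orientation.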
row,Sequence,gcPBM binding intensity (ln)
1,AAGATAGACTCATATGCATGCATTCACATACCAACA [TGCATGCA_site179],9.07 ± 0.26
2,TTAATATAGGAATATGCACACATATATACATACATA [CACACA_site8432],9.01 ± 0.38
3,GGATAAGATGTATATACACACAATTTAAAAAAATAA [CACACA_site910],9.04 ± 0.53
4,CATACACAAGAAAATTCACACACACCCATATATATA [CACACA_site9288],9.87 ± 0.23
5,TCTTACAAAAAACAAACAGAGAAAAATATAAGGAAA [XGTACX_negctrl_site520],8.69 ± 0.36
6,TTTTTTTTTTTGTATCGTACATTTATAATGTTTATA [XGTACX_site6804],8.73 ± 0.52
7,TTTTTTTCATATAACACACACACAAAAATAATGTGG [CACACA_site3688],9.32 ± 0.3
8,TAAACATTGTAAAGGAGTACAAAATTTTTTTTATGA [XGTACX_site7757],8.49 ± 0.54
9,AATAATAAAAAATACACACACATATATATATATTAC [CACACA_site3464],9.47 ± 0.42
10,ATATATATTTATTTATGTACGAATAAATTTACGAAT [XGTACX_site5190],8.56 ± 0.4
11,AATATCATTATATAAGTGCATTTTTTAAAAGATAAA [GTGCAC_site9479],8.47 ± 0.45
12,TTAATAGGTCGAAGTAGTACATAAAAATATATATAT [XGTACX_site5960],8.86 ± 0.42
13,AAGTTAACAATATGAAGTACAAATGAAAAAAAAAAA [XGTACX_site666],8.87 ± 0.45
14,TTGTTATAGAAGCATTCACACACACCCATACATACA [CACACA_site8414],9.63 ± 0.43
15,ATATATATATATCATAGTACACATATGTGTCTCGTG [XGTACX_site774],9.55 ± 0.19
16,ATGTCTTTGAAAAAAAGTACTTAAAATTATAAAAAT [XGTACX_site147],8.46 ± 0.52
17,ACTGTCGTTTTAAAGAGTACATAAAATATTAAATTA [XGTACX_site3589],8.37 ± 0.5
18,TTCTTTTAAAGGTATACATGCGCATGGATTTTTCAT [TGCATGCA_site223],8.99 ± 0.29
19,AATTAAAAAATTATCACACATATATATATATATATA [CACACA_site5789],9.53 ± 0.23
20,TCAAAGCACAGATACACACACATATATATATATATA [CACACA_site287],10.18 ± 0.014
21,AAAACTATTAATGCAAAAAATAAAATATAATAATAA [XGTACX_negctrl_site524],8.67 ± 0.38
22,TATATACCACATTGTTGTACGACACATTTACATTTT [XGTACX_site8370],9.32 ± 0.4
23,GGAAACACGATATATACACACATATTTATATTTATA [CACACA_site6250],9.17 ± 0.44

row,Sequence,gcPBM binding intensity (ln)
1,ATGTTGTTATAAAGAGTGCAACGTATATGTATCCTT [GTGCAC_site9935],8.88 ± 0.42
2,TCCAAATAAATATATTGTACAGAATTATTGATACCT [XGTACX_site327],8.63 ± 0.45
3,AGAAAAGGAAAATAAACATGCAAAAATAATATTAAA [TGCATGCA_site337],8.88 ± 0.64
4,ATTCTGAATGTTATGCGTACATATTAATCCTATTTA [XGTACX_site1216],8.8 ± 0.45
5,TGTAATAATTATTGCACGCACACAAAAACCTATAGA [CACACA_site2932],9.12 ± 0.39
6,TAAGGTTCATTAAAGTGTACACATAAATACCGTAAC [XGTACX_site8212],8.97 ± 0.42
7,AAGTAAATATAATAAGGTACACATAAATAAATAAAT [XGTACX_site1740],9.04 ± 0.56
8,TATAAATATGTATATACACACTTTTAATATTCATAA [CACACA_site7856],8.66 ± 0.45
9,TTTTCTTACTATTGTAGTACAATATTATATTCTTTT [XGTACX_site1925],8.93 ± 0.61
10,TGCGTATTCTTATTAGGTACACATATTCGTGATAAT [XGTACX_site5681],8.82 ± 0.41
11,TAATATTTTTATTATTAGAATTGTATATGTTTAATA [CACACA_negctrl_site1833],8.2 ± 0.54
12,ATAAAAGGAATATTTGCATGTGGTAGTACATAACAT [TGCATGCA_site978],8.85 ± 0.37
13,CATATATCATAAATATGTACGAAATAAAAGAATCAT [XGTACX_site942],8.97 ± 0.4
14,TTTTCTAAAATATTCATAATAAATCAAAAAAAAAAA [GTGCAC_negctrl_site320],8.04 ± 0.49
15,TACAAATATAGACACACACACATATATATATATATA [CACACA_site585],9.975 ± 0.064
16,TAATTTGAAAAATTGTGTACTCATAAAATAAATAAA [XGTACX_site2138],8.31 ± 0.42
17,ATAAAAAAATAAAACACACACATATAGATTATAGAT [CACACA_site7343],9.46 ± 0.35
18,ATAGATGATATACGTAAACACACAAATAAAAAAAAT [CACACA_site9095],9.22 ± 0.56
19,TTTATTTTTCATAATTGTACAAAAATAAATGGAAAC [XGTACX_site5144],8.43 ± 0.42
20,TACATACAGATATATACACACATATAAAATATAGAT [CACACA_site6319],9.34 ± 0.4
21,ATTATATATAAATATACACACATATATAAAATACAT [CACACA_site5298],9.03 ± 0.36
22,AAGAGAAAAATATGGTTGCACTAAAAATATATATTT,8.59 ± 0.5
23,AAATTAAAAAGAGCTTGTACAGATGTATACATAATA [XGTACX_site3882],8.94 ± 0.47

row,Sequence,gcPBM binding intensity (ln)
1,TTTATAATTCTTACAACACACAATGTACATTTATAT [CACACA_site1261],9 ± 0.45
2,AATTTATATGTTTTGTGTACACAATTTATTAAATTA [XGTACX_site6448],8.96 ± 0.41
3,TATATGAAGCTATAGACACACATATAAAAATAGAAT [CACACA_site1313],9.09 ± 0.47
4,TACATATATATATGTATATATATATATATATAAATA [XGTACX_negctrl_site351],9.12 ± 0.38
5,ATGAATAAATGAACATGTACATATATATATATATTA [XGTACX_site5005],9.16 ± 0.41
6,ACATAACTGATATATACACACAATACAAATATAGAT [CACACA_site7328],9.35 ± 0.42
7,AAATGTGCATTATGTTGTACAGTCGAAATTTTTTTT [XGTACX_site3812],8.68 ± 0.41
8,TTTTCTAAATATTATAGTACTCTTAATAATATTAAC [XGTACX_site4222],8.36 ± 0.47
9,TAAAAAATTAATAAAGTGCATAAATATTACAATATT,8.64 ± 0.47
10,TTAACAAAATATAGCACACATAAATATATATTTATG [CACACA_site351],8.79 ± 0.49
11,ATTCATATATTTATTGCATGCAAAGTAAAATAAATA [TGCATGCA_site307],8.85 ± 0.35
12,AATATTAAAATATAAACACACAAAATTCAATTATAT [CACACA_site5971],8.85 ± 0.46
13,GACATATTAGAAGGGTGTACATACTTTTAATCATTT [XGTACX_site1698],8.78 ± 0.47
14,AATTAAAAAGAAAAAAGTACATATTTTTTTAAAAAA [XGTACX_site7384],8.3 ± 0.55
15,ATATATATATATATGTGTACTAATAAGGTTAAATAA [XGTACX_site1535],9.12 ± 0.29
16,AAATATATATTTCTTAGTACATATGTATTTTTTTTT [XGTACX_site938],8.8 ± 0.52
17,AATAAAAAAGAATATACACACATAAATATAAAATAT [CACACA_site683],9.25 ± 0.38
18,ACAAAATGTAGATATTGTACATATTGTAGATATTGT [XGTACX_site7619],9.03 ± 0.42
19,TTTGACAAATTATTGTGTACACAATATTATTATATA [XGTACX_site8320],8.83 ± 0.42
20,ATGAAGAAGTGTAAATGTACATTTTATGTAGAACAA [XGTACX_site6925],8.92 ± 0.4
21,ATTTAAGATTTAATCACACACATATAGATTATAGAC [CACACA_site7383],8.96 ± 0.32
22,TTTACAGAAAGTTACATACACACTAATATTTACACC [CACACA_site1009],8.86 ± 0.4
23,TATAAGAGGATATATACACACAAAAATATGTACAGT [CACACA_site6885],9.33 ± 0.4

row,Sequence,gcPBM binding intensity (ln)
1,TTTATATGTATTAAGTGTACACATATAATGTGTTTG [XGTACX_site6629],8.92 ± 0.49
2,TTATTTTTTTTTTATTGTACTAGGAAAATTTCGATA [XGTACX_site702],8.31 ± 0.45
3,TAATATTAATCCTAGTGTACATTAATTTATATGTAT [XGTACX_site3583],8.73 ± 0.45
4,ATTATATATATATAAACACACAAATATTTTTATATA [CACACA_site5005],8.71 ± 0.42
5,ACCTATATAAGTTATACACACAAATATAGATATATA [CACACA_site7356],9.05 ± 0.42
6,TACAGACAGAAATGCACACACATATTTATATTTATA [CACACA_site7139],9.35 ± 0.3
7,CTTCCTTAGGAATGTACACACATATATAATATGTTG [CACACA_site461],8.93 ± 0.38
8,TCTTTGTTTTTTTTTTTTAAACAAAATCATCAAAGG [XGTACX_negctrl_site192],8.22 ± 0.38
9,AAGATACACCTTTTTAGTACTTACATTTTTTTTATT [XGTACX_site1373],8.93 ± 0.47
10,GCGTATACTTGTAACGGTACACAGGAAATTATAGAA [XGTACX_site507],9.05 ± 0.64
11,AATAAATATATATACACACCCATATATATATATATA [CACACA_site2595],9.73 ± 0.014
12,TACACTTTTTTTTGTACACACTAAAAAGATTAACAA [CACACA_site6037],8.51 ± 0.4
13,TAATGTTGTTTCTGAGGTACACAATTTTTTTTATTT [XGTACX_site8035],8.74 ± 0.45
14,TTAATGAAATATTATACACACAAAAAAATAATTTTA [CACACA_site4231],8.66 ± 0.36
15,TATATATATGGACACACACACACCAAAGCGTAGCGC [CACACA_site4209],9.66 ± 0.25
16,AAAAAATATTTATGTTCACACATTTTATATATGATA [CACACA_site4821],8.59 ± 0.42
17,TTTTTTTTTTGATGAGCACACATGTTTTTTCTTAGA [CACACA_site3171],8.75 ± 0.49
18,AAATATTTTTAAAGAAGTACTTTTTAAAAATAATCT [XGTACX_site4897],8.31 ± 0.2
19,CCAACATAGAGGGGCACACACATATATACCTAAAAA [CACACA_site5088],9.29 ± 0.58
20,AGATTATAAAATTCTACACACATATATACCTATATA [CACACA_site5848],9.04 ± 0.42
